Target: T1, IscS (E. coli desulfurase), wild type (E. coli, UniProt P0A6B7 1-404)
T1 construct: cysteine desulfurase IscS, E. coli; construct pET-11 IscS (EMBL-Hamburg); Dimer by SAXS; also called desulfurase IscS
T1 sequence: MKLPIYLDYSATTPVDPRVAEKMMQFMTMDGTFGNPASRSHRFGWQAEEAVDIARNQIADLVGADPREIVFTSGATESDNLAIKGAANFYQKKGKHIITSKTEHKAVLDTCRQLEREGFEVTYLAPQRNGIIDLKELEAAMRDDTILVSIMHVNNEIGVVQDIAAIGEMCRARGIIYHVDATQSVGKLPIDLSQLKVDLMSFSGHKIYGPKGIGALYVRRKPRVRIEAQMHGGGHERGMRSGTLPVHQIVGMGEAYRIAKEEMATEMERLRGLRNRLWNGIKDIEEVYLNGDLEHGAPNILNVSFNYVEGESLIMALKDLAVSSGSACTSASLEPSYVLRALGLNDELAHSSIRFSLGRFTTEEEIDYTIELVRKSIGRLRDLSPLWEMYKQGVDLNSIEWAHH
Experiment: BLI; competition: immobilised biotinylated holo-Fdx exposed to 10 μM IscS at 0-100 μM CyaY, in the presence of 30 μM IscU; 20 mM HEPES pH 7.5, 150 mM NaCl, 2 mM TCEP, 0.5 mg/ml BSA, 25 °C
Conditions: both partners purified

B1: IscU (Fe-S cluster scaffold protein) (natural protein, E. coli, UniProt P0ACD4 1-128, looked up)
chain: MAYSEKVIDHYENPRNVGSFDNNDENVGSGMVGAPACGDVMKLQIKVNDEGIIEDARFKTYGCGSAIASSSLVTEWVKGKSLDEAQAIKNTDIAEELELPPVKIHCSILAEDAIKAAIADYKSKREAK
notes: IscU, Fe-S cluster scaffold protein, E. coli
- binding result: binds

From article PMC3750173, “Ferredoxin Competes with Bacterial Frataxin in Binding to the Desulfurase IscS*^([image sbox.jpg])” (The Journal of Biological Chemistry, 2013)
